# Data: publication PMC4336329 (PLoS ONE, 2015)
# Hit rate of the full screen: of about 310,000 compounds, about 2,200 (0.71%) showed an effect of 50% or more. The effect is printed as a negative number. The list shows a part of the results.
# Biological target: human ether-à-go-go-related gene (hERG) potassium channel (human, UniProt Q12809)
# Assay: primary screen, population patch clamp on CHO cells stably expressing hERG
# Chain of human ether-à-go-go-related gene (hERG) potassium channel (Q12809 whole entry, looked up): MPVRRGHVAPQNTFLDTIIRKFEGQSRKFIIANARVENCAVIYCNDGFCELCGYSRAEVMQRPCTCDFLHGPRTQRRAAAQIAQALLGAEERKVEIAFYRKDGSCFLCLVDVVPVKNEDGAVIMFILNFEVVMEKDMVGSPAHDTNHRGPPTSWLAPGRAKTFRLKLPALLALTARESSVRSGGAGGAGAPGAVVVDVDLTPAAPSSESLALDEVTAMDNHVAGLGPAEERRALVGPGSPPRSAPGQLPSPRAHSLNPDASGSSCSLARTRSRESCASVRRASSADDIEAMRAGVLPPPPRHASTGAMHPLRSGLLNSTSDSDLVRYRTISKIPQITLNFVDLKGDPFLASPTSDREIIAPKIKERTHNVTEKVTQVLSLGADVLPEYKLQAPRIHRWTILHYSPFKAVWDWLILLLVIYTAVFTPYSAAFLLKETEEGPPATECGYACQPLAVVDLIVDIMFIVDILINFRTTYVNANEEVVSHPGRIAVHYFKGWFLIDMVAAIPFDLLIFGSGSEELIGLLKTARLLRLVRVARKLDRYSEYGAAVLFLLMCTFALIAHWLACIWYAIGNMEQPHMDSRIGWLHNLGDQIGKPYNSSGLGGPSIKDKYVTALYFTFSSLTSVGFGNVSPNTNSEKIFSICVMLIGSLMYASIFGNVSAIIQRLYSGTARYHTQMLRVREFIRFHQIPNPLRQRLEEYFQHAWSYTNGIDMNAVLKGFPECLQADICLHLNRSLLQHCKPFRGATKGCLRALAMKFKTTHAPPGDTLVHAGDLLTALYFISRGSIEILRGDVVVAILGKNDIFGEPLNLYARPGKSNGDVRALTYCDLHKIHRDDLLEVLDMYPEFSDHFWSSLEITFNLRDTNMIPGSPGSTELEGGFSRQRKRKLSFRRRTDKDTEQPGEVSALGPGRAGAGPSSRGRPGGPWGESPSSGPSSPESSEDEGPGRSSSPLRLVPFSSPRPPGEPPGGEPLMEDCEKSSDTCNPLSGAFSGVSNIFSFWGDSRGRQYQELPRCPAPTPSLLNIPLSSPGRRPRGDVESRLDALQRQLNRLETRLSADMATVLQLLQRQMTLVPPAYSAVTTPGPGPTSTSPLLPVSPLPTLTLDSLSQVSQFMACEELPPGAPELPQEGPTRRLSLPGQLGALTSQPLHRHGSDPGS
row,Structure (SMILES),"hERG current change (%, negative = inhibition) at 1uM"
1,CCn1cc(-c2cc(C(=O)O)c3ccccc3n2)c(C)n1,17.9%
2,CCCCOc1cccc(C(=O)NNC(=S)NC2CCCCC2)c1,8.24%
3,O=C(N/N=C/C(Br)=C/c1ccccc1)c1ccc([N+](=O)[O-])cc1,14.9%
4,CC1(C)C2CCC1(C)C(OC(=O)CC(=O)O)C2 (stereo not drawn),6.23%
5,COc1cccc(OC)c1C1=NCC(=O)Nc2c1oc1ccc(Br)cc21,-17.7%
6,O=C(CC12CC3CC(CC(Br)(C3)C1)C2)NCc1ccccc1,3.51%
7,Cc1nnc(NC(=O)c2oc3ccccc3c2C)s1,16.5%
8,COc1ccc(C(CNC(=O)c2ccc3c(c2)C(=O)N(CCC(C)C)C3=O)N2CCOCC2)cc1 (stereo not drawn),8.5%
9,COC(=O)C1CCN(C(=O)Cc2ccccc2OC)CC1,15.5%
10,COc1ccc(-n2nc(C(=O)NCc3ccco3)c3c4ccccc4n(C)c3c2=O)cc1,5.12%
11,O=C(N/N=C/c1cc([N+](=O)[O-])ccc1O)c1ccc2c(c1)OCCO2,11.8%
12,CN(c1nc2ccccc2nc1Cl)S(=O)(=O)c1ccccc1,0.387%
13,CCN1CCCC1CNC(=O)C(=O)Nc1cccc(OC)c1 (stereo not drawn),9.44%
14,Cc1ccc(NS(=O)(=O)c2ccc3c(c2)OCCCO3)cc1S(=O)(=O)N1CCOCC1,13.3%
15,O=C(NC1CCCC1)c1nc2c(nnn2Cc2ccccc2Cl)c(=O)[nH]1,7.94%
16,CCOc1ccc(NC(=O)CCC(=O)N/N=C/c2ccc3c(c2)OCO3)cc1,20.8%
17,CCCc1nc2c(=O)n(C)c(=O)[nH]c2n1CCC,3.2%
18,C[C@@H]1C(=O)O[C@@H]2[C@H](O)C34[C@@H]5OC(=O)C3(O[C@H]3OC(=O)[C@H](O)C34[C@H](C(C)(C)C)[C@H]5O)[C@@]12O (stereo partly drawn),18.5%
19,CCOc1ccc(NC(=O)CSc2nnc(COc3c(C)cccc3C)o2)cc1,10.3%
20,CCCn1c(SCC(=O)Nc2ccc3c(c2)OCO3)nc2c1c(=O)n(C)c(=O)n2C,10%
21,CC(/C=C1\N=C(SCc2ccccc2)SC1=O)=C\c1ccccc1,16.6%
22,NC1=NC[C@H](Cc2ccccc2)N1CC1CCCCC1,8.56%

row,Structure (SMILES),"hERG current change (%, negative = inhibition) at 1uM"
1,C/C(=N\Nc1ccccc1)c1cc2ccccc2oc1=O,11.8%
2,CN(C)P1(N(C)C)=Nc2c(c(N)nn2C)C(c2ccccc2)=N1,7.71%
3,CCCN(CCC)S(=O)(=O)c1ccc(NC(=O)Cc2cccs2)cc1,7.17%
4,Nc1c(C=C2C=CC(=O)C=C2)c(=O)nc2sc(CC(=O)N3CCOCC3)nn12,15.2%
5,COCCSc1ccccc1C(=O)N1CCc2ccccc2C1,14.1%
6,O=C(COC(=O)C1(c2ccc(Cl)cc2)CCCC1)NCc1ccco1,2.67%
7,Cc1occc1-c1nnc(SCC(=O)N2CCN(c3ccccc3)CC2)n1C,0.27%
8,O=C(Nc1cc(S(=O)(=O)N2CCCCC2)ccc1Cl)c1ccncc1,-20.8%
9,COc1ccc(Cl)cc1NC(=O)CN(C)C(=O)c1ccc(N2CCCCC2)c([N+](=O)[O-])c1,25%
10,COC(=O)CCCC(=O)N1CCCC(CCC(=O)NCc2ccc(F)c(F)c2)C1 (stereo not drawn),7.52%
11,COC(=O)c1ccccc1N=Nc1c(N)[nH][nH]c1=O,12.4%
12,CCC(C)NC(=O)CS(=O)(=O)Cc1nc(-c2cccc(OC)c2)oc1C (stereo not drawn),5.4%
13,CCc1nc(Nc2ccccc2F)c2oc3ccccc3c2n1.Cl,13.2%
14,Fc1ccc(Oc2ccc3nnc(C(F)(F)F)n3n2)cc1,12.9%
15,O=C(Nc1ccccc1O)c1ccccc1O,-4%
16,Cc1cc2[nH]c3c(c[n+](C)c4ccccc34)c2cc1C.[I-],-75.9%
17,COc1ccc([C@@H]2[C@@H]3C(=O)N(C(C)(C)C)C(=O)[C@@H]3[C@]3(Cc4ccccc4)C(=O)N(c4ccc(C(F)(F)F)cc4)C(=O)N23)cc1,2.89%
18,CC(C)(C)NC(=S)Nc1ccc(Br)cc1,-2.9%
19,O=C(Nc1ccc2oc(-c3ccccc3F)nc2c1)c1ncn[nH]1,10.9%
20,O=C(CCN1CCN(c2ccc(F)cc2)CC1)Nc1ccccc1F,-9.21%
21,O=S(=O)(Nc1ccc(C(F)(F)F)cc1)c1cccs1,6.46%
22,CN(CCC#N)C(=O)COC(=O)c1cc(Cl)cc(Cl)c1N,8.79%

row,Structure (SMILES),"hERG current change (%, negative = inhibition) at 1uM"
1,C[C@H](NC(=O)c1nc[nH]c1C(=O)N[C@@H](CCCCNC(=O)OC(C)(C)C)C(=O)OC(C)(C)C)c1ccccc1,19.1%
2,N=C1/C(=C/c2ccco2)C(=O)N=C2SC(CC(=O)N3CCCC3)=NN12,17.9%
3,COc1ccc(OC)c(N(CC(=O)N2CCN(c3cc(Cl)ccc3C)CC2)S(C)(=O)=O)c1,6.79%
4,COc1ccc2cc3cc(C(=O)NCCCN4CCC(C)CC4)oc3nc2c1,-9.03%
5,COCCNC(=O)C(c1ccco1)N(Cc1ccc(OC)cc1)C(=O)Cn1nnc2ccccc21 (stereo not drawn),-1.07%
6,Cc1ccc(S(=O)(=O)N[C@@H](C)C(=O)OCC(=O)N2c3ccccc3NC(=O)C2(C)C)cc1,3.1%
7,CCOC(=O)N1CCN(c2cc(=O)n(-c3ccc(Br)cc3)c(=O)[nH]2)CC1,13.5%
8,CC(C)=CC(=O)OCC(=O)Nc1ccccc1Cl,17.3%
9,Cc1cc(C)c(S(=O)(=O)NCCCn2ccnc2)c(C)c1,3.15%
10,O=c1c2cn[nH]c2[nH]c(=S)n1-c1ccccc1Cl,16.4%
11,COc1cc(C2Nc3ccccc3NC3=C2C(=O)CC(c2ccc(OC)c(OC)c2)C3)ccc1O (stereo not drawn),11.1%
12,O=C(COc1ccc(Br)cc1)N1CCN(c2ccccc2)CC1,-7.08%
13,CC(C)(C)NC(=O)c1nc2nc(-c3ccccc3)cc(C(F)(F)F)n2n1,12.3%
14,N#Cc1c(-c2ccncc2)c2c([nH]c1=S)CCCC2,11.6%
15,CN(C)c1ccnc(-n2cccc2/C=N/OCc2cccc(F)c2)c1C#N,10.6%
16,C=CCN(c1ccc(C(=O)Nc2cccc(C)c2)cc1)S(C)(=O)=O,0.258%
17,CN(CC(=O)NNC(=O)CNC(=O)c1cccs1)S(=O)(=O)c1ccc(Cl)cc1,1.55%
18,S=c1[nH]nc(-c2cccc(Br)c2)o1,6.69%
19,O=C(NNc1c(Cl)cccc1Cl)c1sccc1Cl,10.2%
20,CN1C(=O)NC(c2cccc([N+](=O)[O-])c2)C2=C1CCCC2=O (stereo not drawn),11.5%
21,Cc1onc(-c2ccccc2Cl)c1C(=O)NNC(=O)c1ccccc1F,14.5%
22,CCOC(=O)C(C)N1C(=O)S/C(=C/c2ccc3c(c2)n(C)c(=O)n3C)C1=O (stereo not drawn),-1.73%

row,Structure (SMILES),"hERG current change (%, negative = inhibition) at 1uM"
1,CN1CCN(C(=O)O[C@H]2c3nccnc3C(=O)N2c2ccc(Cl)cn2)CC1,15%
2,CCc1nn(CC(=O)NCCCN2CCN(C)CC2)c(=O)c2cc3sccc3n12,5.53%
3,O=C(Cn1cc([N+](=O)[O-])nc1[N+](=O)[O-])N1CCN(c2ccccc2)CC1,9.49%
4,CCc1ccc2nc(N3CCN(C(=O)C(C)(C)C)CC3)sc2c1,10.5%
5,Cc1ccc(SCC(=O)Nc2cccc(S(=O)(=O)N3CCOCC3)c2)cc1C,9.2%
6,Cc1ccc(S(=O)(=O)Nc2ccc(S(=O)(=O)N3CCOCC3)cc2)cc1[N+](=O)[O-],9.87%
7,CCOc1ccc(NCCC(=O)c2ccc3c(c2)OCO3)cc1,1.15%
8,COc1ccc(C(=O)NC(=S)Nc2ccc(CN3CCOCC3)cc2)cc1Cl,11%
9,O=C(NCCc1ccc(F)cc1)C1CCN(C(=O)Nc2ccccc2)CC1,6.81%
10,Nc1nonc1-n1nncc1-c1ccccc1,6.01%
11,COc1ccccc1NC(=O)N1CCN(c2cccc(C(F)(F)F)c2)CC1,5.08%
12,CN1C=CC2=C(C#N)C(N)C(C#N)(C#N)[C@H](c3ccccc3)[C@H]2C1 (stereo partly drawn),1.27%
13,COc1ccc2[nH]c(C(=O)N/N=C/c3ccc(OC)c(O)c3)cc2c1,12%
14,CNc1nc2cc([N+](=O)[O-])c([N+](=O)[O-])cc2nc1NC,-3.16%
15,C=C(C)CC1N(c2cccc(OC)c2)C(=O)[C@@H]2C(C(=O)O)[C@H]3C=C[C@@]12O3 (stereo partly drawn),13.5%
16,COC(=O)c1ccc(C)c(NC(=O)CCc2ccc(OC)c(OC)c2)c1,14.2%
17,c1ccc2c3n(nc2c1)CCCO3,13%
18,O=C(COC(=O)C1(c2ccccc2F)CCCC1)Nc1ncc(C(F)(F)F)cc1Cl,6.03%
19,O=C1CCCC(O)=C1N=Nc1ccc(Cl)c(Cl)c1,15.5%
20,COc1ccc(-c2oc3ccc(-c4ccc(OC)nc4)cc3c2C#CC2(O)CCCCC2)cc1,-14.8%
21,CCN(CC)c1ccc(/C=N/NC(=S)NCc2ccccc2)c(O)c1,6.11%
